These results are taken from ChEMBL document CHEMBL1961873, “Compounds: GSK PKIS; Assays: Nanosyn kinase panel” (2012).

In assay [1] the target is T1, Muscle, skeletal receptor tyrosine-protein kinase (Homo sapiens) (UniProt O15146).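 Also: reported value is the mean percent inhibition of MuSK kinase.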
T1 sequence (whole entry): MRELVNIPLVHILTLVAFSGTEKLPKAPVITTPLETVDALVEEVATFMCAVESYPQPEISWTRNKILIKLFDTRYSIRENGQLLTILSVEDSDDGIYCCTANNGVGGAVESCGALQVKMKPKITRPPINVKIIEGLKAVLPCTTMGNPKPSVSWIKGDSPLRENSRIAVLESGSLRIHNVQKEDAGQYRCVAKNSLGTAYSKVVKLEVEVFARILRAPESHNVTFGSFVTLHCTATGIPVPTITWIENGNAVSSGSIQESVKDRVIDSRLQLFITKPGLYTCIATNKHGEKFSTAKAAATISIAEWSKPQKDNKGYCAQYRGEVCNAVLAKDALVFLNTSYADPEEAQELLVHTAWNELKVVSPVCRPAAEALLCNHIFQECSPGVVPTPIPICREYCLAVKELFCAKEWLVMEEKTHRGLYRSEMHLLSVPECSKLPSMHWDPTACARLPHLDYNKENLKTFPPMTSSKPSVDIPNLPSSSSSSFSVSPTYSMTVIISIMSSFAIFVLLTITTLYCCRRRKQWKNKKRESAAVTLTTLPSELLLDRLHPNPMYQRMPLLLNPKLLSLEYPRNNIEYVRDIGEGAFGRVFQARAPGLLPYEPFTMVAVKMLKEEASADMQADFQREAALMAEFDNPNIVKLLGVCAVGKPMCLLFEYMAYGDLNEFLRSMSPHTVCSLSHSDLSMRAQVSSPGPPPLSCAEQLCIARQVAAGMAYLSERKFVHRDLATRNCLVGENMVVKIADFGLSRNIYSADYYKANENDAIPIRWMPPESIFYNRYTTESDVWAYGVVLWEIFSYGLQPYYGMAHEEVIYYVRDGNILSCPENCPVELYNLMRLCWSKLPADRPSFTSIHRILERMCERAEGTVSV
As to conditions: at 1 µM.

Assay [2] concerns the target Platelet-derived growth factor receptor alpha (Homo sapiens) (UniProt P16234). As to conditions: at 0.1 µM.
For assay [3] the target is unchanged. The settings on record: at 1 µM.
The test system of assay [4] is Platelet-derived growth factor receptor alpha (Homo sapiens), P16234 [D842V]. The settings on record: at 0.1 µM.
The test system is the same in assay [5]. The settings on record: at 1 µM.
Assay [6] deals with Platelet-derived growth factor receptor alpha (Homo sapiens), P16234 [T674I]. The settings on record: at 0.1 µM.
Assay [7] shares this test system. The settings on record: at 1 µM.
Assay [8] relates to Platelet-derived growth factor receptor alpha (Homo sapiens), P16234 [V561D]. As to conditions: at 0.1 µM.
For assay [9] the test system is unchanged. As to conditions: at 1 µM.
Assay [10] addresses Platelet-derived growth factor receptor beta (Homo sapiens) (UniProt P09619). The settings on record: at 0.1 µM.
For assay [11] the target is unchanged. As to conditions: at 1 µM.
The target in assay [12] is Tyrosine-protein kinase FRK (Homo sapiens) (UniProt P42685). As to conditions: at 0.1 µM.
Assay [13] shares this target. The settings on record: at 1 µM.
In assay [14] the target is Protein-tyrosine kinase 2-beta (Homo sapiens) (UniProt Q14289). As to conditions: at 0.1 µM.
Assay [15] shares this target. The settings on record: at 1 µM.
The target of assay [16] is Proto-oncogene tyrosine-protein kinase receptor Ret (Homo sapiens) (UniProt P07949). As to conditions: at 0.1 µM.
Assay [17] shares this target. As to conditions: at 1 µM.
For assay [18], the system named is Proto-oncogene tyrosine-protein kinase receptor Ret (Homo sapiens), P07949 [V804L]. The settings on record: at 0.1 µM.
Assay [19] has the same test system. As to conditions: at 1 µM.
Assay [20] relates to Proto-oncogene tyrosine-protein kinase receptor Ret (Homo sapiens), P07949 [Y791F]. The settings on record: at 0.1 µM.

For some assays here: What follows is the remainder of the data, with few or none of the strong results. The entries are a selection whose mix differs from that of the whole data set.

Chain of UniProt P09619 (P09619 whole entry): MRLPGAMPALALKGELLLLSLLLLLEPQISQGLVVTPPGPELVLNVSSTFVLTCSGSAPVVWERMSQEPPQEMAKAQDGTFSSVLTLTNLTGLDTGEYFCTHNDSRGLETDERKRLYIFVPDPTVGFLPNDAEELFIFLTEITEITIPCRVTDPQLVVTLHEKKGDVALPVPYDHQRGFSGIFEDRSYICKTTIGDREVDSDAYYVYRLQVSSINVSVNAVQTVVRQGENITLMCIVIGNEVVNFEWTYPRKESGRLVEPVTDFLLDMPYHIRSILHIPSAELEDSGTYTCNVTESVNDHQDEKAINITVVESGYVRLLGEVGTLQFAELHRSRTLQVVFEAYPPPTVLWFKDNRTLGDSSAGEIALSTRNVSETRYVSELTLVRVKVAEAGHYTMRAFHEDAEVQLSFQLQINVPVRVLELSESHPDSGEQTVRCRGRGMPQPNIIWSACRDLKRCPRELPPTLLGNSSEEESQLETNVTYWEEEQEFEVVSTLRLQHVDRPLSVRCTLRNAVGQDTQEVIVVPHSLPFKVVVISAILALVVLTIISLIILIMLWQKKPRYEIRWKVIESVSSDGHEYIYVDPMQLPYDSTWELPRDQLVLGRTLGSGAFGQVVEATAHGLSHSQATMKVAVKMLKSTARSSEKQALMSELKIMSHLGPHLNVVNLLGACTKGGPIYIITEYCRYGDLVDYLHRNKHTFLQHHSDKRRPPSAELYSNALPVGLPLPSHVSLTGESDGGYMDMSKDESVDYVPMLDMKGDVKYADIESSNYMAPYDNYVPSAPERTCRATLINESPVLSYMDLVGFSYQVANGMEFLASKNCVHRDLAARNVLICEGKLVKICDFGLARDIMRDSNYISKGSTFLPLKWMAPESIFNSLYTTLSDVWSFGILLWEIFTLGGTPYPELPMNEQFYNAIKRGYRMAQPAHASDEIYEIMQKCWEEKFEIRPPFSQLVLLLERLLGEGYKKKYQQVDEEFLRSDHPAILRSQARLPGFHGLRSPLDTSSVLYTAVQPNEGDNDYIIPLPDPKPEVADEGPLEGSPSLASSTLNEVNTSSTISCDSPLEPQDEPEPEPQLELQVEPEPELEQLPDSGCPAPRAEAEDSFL
Chain of UniProt P42685 (P42685 whole entry): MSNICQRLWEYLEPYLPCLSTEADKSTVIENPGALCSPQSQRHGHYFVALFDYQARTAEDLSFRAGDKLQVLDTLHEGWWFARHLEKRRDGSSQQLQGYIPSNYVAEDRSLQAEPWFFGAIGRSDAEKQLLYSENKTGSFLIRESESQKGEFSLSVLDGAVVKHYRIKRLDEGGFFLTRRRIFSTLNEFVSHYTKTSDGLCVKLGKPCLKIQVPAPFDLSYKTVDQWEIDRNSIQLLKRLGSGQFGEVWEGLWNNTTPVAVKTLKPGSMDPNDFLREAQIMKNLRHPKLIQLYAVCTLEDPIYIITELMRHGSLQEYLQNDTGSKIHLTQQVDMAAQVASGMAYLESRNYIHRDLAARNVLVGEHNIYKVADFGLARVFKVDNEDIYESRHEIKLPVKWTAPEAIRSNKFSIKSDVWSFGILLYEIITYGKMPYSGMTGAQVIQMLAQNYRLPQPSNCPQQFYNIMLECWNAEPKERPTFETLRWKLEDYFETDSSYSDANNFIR
Chain of UniProt Q14289 (Q14289 whole entry, looked up): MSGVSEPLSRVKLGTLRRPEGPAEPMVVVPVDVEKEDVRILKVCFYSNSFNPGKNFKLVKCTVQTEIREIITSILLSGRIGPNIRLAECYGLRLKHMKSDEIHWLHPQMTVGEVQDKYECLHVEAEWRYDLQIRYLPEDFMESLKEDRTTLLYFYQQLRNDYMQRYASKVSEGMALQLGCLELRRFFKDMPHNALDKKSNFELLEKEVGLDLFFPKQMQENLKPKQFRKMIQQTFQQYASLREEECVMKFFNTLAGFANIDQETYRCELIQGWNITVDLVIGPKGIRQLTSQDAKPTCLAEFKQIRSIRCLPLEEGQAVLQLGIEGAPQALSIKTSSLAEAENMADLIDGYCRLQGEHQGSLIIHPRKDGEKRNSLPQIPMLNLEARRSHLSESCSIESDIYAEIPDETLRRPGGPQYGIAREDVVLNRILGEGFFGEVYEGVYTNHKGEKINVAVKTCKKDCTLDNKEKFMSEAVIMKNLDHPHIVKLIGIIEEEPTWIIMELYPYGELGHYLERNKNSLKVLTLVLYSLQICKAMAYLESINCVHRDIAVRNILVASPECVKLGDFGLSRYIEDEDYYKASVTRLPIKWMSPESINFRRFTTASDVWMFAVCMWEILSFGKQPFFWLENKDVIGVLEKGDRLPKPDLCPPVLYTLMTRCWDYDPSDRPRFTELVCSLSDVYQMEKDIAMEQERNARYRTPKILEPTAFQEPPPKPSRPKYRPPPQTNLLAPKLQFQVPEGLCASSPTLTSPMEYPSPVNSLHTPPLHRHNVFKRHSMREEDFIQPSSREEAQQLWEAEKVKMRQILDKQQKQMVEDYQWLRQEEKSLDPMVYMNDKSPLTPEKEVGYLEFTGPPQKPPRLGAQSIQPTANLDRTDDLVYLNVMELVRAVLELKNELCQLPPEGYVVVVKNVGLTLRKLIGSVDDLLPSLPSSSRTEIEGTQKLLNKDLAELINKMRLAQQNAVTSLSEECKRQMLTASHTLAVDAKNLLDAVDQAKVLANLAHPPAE
Chain of UniProt P07949 (P07949 whole entry): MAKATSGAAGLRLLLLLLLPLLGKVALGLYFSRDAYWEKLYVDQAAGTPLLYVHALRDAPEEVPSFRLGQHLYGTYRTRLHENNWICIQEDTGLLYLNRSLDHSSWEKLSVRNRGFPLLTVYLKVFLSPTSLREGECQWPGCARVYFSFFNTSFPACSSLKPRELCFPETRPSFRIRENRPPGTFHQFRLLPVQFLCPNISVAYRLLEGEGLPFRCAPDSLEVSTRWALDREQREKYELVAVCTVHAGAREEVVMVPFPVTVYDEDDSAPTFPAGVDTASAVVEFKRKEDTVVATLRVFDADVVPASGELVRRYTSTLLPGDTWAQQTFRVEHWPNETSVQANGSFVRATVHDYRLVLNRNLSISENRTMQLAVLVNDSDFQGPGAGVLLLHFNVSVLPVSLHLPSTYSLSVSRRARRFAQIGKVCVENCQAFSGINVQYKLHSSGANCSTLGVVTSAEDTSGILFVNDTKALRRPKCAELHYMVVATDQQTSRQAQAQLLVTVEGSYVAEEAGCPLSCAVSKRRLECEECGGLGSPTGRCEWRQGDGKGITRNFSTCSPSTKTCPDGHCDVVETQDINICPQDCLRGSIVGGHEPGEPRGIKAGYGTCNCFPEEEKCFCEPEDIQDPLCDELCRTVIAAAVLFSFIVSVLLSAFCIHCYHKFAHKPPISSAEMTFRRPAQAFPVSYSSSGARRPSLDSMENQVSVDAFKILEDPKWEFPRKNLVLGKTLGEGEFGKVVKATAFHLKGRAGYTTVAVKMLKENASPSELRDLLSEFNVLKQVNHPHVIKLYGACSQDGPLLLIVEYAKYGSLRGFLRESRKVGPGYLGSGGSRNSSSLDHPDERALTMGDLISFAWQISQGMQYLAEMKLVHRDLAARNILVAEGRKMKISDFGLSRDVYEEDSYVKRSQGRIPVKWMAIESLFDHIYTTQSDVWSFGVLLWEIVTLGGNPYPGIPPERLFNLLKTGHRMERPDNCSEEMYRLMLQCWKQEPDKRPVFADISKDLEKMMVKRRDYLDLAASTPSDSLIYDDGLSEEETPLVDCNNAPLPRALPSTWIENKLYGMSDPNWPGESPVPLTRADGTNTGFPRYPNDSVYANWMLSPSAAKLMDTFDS
Chain of UniProt P16234 (P16234 whole entry): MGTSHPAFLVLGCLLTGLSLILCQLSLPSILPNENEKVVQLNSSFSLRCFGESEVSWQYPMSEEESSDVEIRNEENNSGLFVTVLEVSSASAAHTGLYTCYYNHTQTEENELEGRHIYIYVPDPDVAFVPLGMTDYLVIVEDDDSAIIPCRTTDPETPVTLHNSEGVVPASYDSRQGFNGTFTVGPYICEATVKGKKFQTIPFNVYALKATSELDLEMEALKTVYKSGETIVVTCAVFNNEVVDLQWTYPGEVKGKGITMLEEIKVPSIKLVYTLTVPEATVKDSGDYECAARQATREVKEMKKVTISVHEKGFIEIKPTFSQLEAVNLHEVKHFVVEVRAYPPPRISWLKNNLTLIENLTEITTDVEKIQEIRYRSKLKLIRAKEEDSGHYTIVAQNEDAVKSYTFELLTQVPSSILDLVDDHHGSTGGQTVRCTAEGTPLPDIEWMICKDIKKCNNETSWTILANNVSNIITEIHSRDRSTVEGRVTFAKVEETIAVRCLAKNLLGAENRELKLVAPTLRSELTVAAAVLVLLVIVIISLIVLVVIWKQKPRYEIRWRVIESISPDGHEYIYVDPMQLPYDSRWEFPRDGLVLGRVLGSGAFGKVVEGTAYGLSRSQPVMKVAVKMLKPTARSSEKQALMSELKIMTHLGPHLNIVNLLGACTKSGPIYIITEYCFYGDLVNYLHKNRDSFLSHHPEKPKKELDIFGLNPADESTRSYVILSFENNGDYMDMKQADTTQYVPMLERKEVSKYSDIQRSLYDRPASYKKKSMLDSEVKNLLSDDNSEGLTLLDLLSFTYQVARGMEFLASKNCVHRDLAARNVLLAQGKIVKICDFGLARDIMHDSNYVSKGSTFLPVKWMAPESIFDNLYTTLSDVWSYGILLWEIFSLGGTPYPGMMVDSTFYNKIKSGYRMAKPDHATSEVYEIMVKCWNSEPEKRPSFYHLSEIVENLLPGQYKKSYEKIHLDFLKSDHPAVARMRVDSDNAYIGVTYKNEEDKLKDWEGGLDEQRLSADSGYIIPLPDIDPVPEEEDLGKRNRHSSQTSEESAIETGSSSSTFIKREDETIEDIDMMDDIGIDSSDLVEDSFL

Regarding `O=C1NC(=O)C(c2ccccc2)=C1Nc1ccccc1`, the inhibition stood at 5% in [1]; 10.8% in assay [2]; 19.4% in assay [3]; 2.38% in assay [4]; 4.8% in [5]; 6.76% in [6]. Also, the inhibition in [7] worked out at 9.77%; in [8], 6.64%; in assay [9], 4.67%; in assay [10], 4.86%; in assay [11] it was 14.4%; in [12] it was 4.38%. Also, the inhibition in [13] is 2.96%; in [14] it was 11.2%; in assay [15], 14.1%; in [16], 6.46%; in assay [17], 10.2%; in [18], 3.6%. The inhibition in assay [19] worked out at 8.73%; in assay [20] it was 11.6%.
`CS(=O)(=O)c1ccc(Oc2nccc(-c3c(-c4ccc(F)cc4)ncn3C3CCNCC3)n2)cc1`: the inhibition in assay [1] amounted to 2.52%; in assay [2] it was 4.16%; in assay [3], 7.85%; in assay [4], 4.71%; in assay [5], 4.47%; in assay [6], 3.65%. In addition, the inhibition in [7] was 5.19%; in assay [8], 3.55%; in [9] it was 3.19%; in [10] it was -0.81%; in [11], 1.5%; in [12], 2.69%. The inhibition was 2.33% in assay [13]; 0.08% in assay [14]; 2.41% in assay [15]; 4.17% in assay [16]; 2.55% in [17]; 3.11% in assay [18]. Moreover, the figures for the inhibition in assay [19] and in assay [20] were 1.92% and 7.04%, respectively.
In the case of `Fc1ccc(-c2ncn(C3CCNCC3)c2-c2ccnc(Oc3ccc(Cl)cc3)n2)cc1`, the inhibition in [1] amounted to 1.51%; in assay [2], 2.56%; in assay [3], 4.67%; in assay [4], 3.1%; in assay [5], 2.35%; in [6] it was 1.24%. Moreover, the inhibition was determined as 2.52% in assay [7]; 5.65% in assay [8]; 4.01% in assay [9]; 2.08% in assay [10]; 4.24% in [11]; 0.37% in assay [12]. The inhibition in assay [13] is 1.55%; in assay [14] it was 3.12%; in assay [15], 8.77%; in assay [16] it was -0.56%; in assay [17], 0.73%; in [18], 2.11%. Besides, the figures for the inhibition in assay [19] and in assay [20] were 1.61% and 1.66%, respectively.
Take `O=C(O)c1ccc(Oc2nccc(-c3c(-c4ccc(F)cc4)ncn3C3CCNCC3)n2)cc1`: the inhibition in assay [1] was determined as 8.9%; in [2], 6.72%; in assay [3], 11.2%; in assay [4], 2.24%; in assay [5], 2.45%; in assay [6] it was 4%. In addition, the inhibition in assay [7] was found to be 9.13%; in assay [8], 2.78%; in assay [9], 2.76%; in assay [10], 4.49%; in assay [11], 5.24%; in [12], 2.11%. Besides, the inhibition in assay [13] was 1.88%; in assay [14], -0.54%; in [15] it was 7.42%; in assay [16] it was 3.22%; in [17], 2.07%; in assay [18], 3.24%. The inhibition was found to be 5.54% in assay [19] and 4.65% in [20].
`CC(C)(C)c1ccc(Oc2nccc(-c3c(-c4ccc(F)cc4)ncn3C3CCNCC3)n2)cc1`: the inhibition in assay [1] was found to be 4.98%; in assay [2], 5.23%; in assay [3], 12.2%; in assay [4], 3.92%; in assay [5], 6.46%; in assay [6], 3.57%. The inhibition in assay [7] was found to be 8.88%; in [8], 5.04%; in [9], 7.97%; in [10], 3.31%; in [11], 9.17%; in assay [12], 2.96%. In addition, the inhibition in [13] stood at 2.13%; in [14], 6.1%; in assay [15], 10.3%; in [16] it was 6.21%; in assay [17], 6.76%; in [18], 4.62%. In addition, the inhibition in assay [19] came out at 8.07%; in [20] it was 7.19%.
Consider `Fc1ccc(-c2ncn(C3CCNCC3)c2-c2ccnc(Oc3cccc(C(F)(F)F)c3)n2)cc1`, for which the inhibition in [1] is -1.08%; in assay [2], 9.14%; in [3] it was 14.6%; in [4], 3.71%; in assay [5], 5.48%; in [6], 6.65%. In addition, the inhibition stood at 13.6% in [7]; 3.34% in assay [8]; 5.74% in [9]; 2.23% in [10]; 9.63% in assay [11]; 4.64% in [12]. In addition, the inhibition in assay [13] is 4.39%; in assay [14], 7.35%; in [15], 6.56%; in assay [16], 6.25%; in [17] it was 6.72%; in [18] it was 4.83%. Besides, the inhibition is 4.87% in assay [19] and 9% in assay [20].
For the compound `Fc1ccc(Oc2nccc(-c3c(-c4ccc(F)cc4)ncn3C3CCNCC3)n2)cc1`, the inhibition worked out at 7.6% in assay [1]; 6.7% in [2]; 10.6% in [3]; 0.7% in assay [4]; 3.02% in [5]; 1.38% in assay [6]. The inhibition came out at 7.05% in assay [7]; 2.18% in assay [8]; 4.43% in assay [9]; 3.81% in assay [10]; 3.22% in [11]; 2.03% in assay [12]. In addition, the inhibition was 2.78% in assay [13]; -0.55% in assay [14]; 8.01% in assay [15]; 0.21% in [16]; 3.25% in [17]; 1.64% in [18]. Besides, the values for the inhibition in [19] and in assay [20] were 5.36% and 2.78%, respectively.

Usually inhibition stands for the drop in the measured response relative to a control, in per cent.
